Like-named read-outs stand apart in the source and are kept apart here.
Experiments:
[1] = test system: PLA2 activities derived from human platelets and human polymorphonuclear leucocytes (PMNs); settings: human platelet and PMN PLA2; all three acids to approximately the same extent; cited from earlier work
[2] = test system: PLA2 activities derived from human platelets and human polymorphonuclear leucocytes (PMNs); assay: In vitro PLA2 activity inhibition by fatty acids

Row | Compound | inhibition of in vitro PLA2 activity [1] | also measured
1 | CCCCC/C=C\C/C=C\C/C=C\C/C=C\CCCC(=O)O [arachidonic acid] | inhibited | –
2 | CCCCCCC(O)C/C=C\CCCCCCCC(=O)O (stereo not drawn) [ricinoleic acid, 12-hydroxy-oleic acid] | – | inhibition of in vitro PLA2 activity ([2]; 12-hydroxylation of oleic acid, recent studies): non-inhibitory
3 | CCCCC[C@H](O)/C=C/C1=C(CCCCCCC(=O)O)C(=O)CC1 [PGB1, prostaglandin B1] | – | less inhibitory than the precursor arachidonic acid ([2]; PLA2 inhibition relative to arachidonic acid): at least 2 orders of magnitude; PLA2 inhibitory activity (Ca^++-dependent PLA2s): not inhibitory
4 | CCCCC/C=C\C/C=C\CCCCCCCC(=O)O [linoleic acid] | inhibited | –
5 | CCCCCCCC/C=C\CCCCCCCC(=O)O [oleic acid] | inhibited | –
